# The supplement of paper PMC3334620
# Over roughly 33,000 sequences, “E-score (-0.5 to 0.5)” has its median near -0.016; the highest 2% begin near 0.32. The list shows a part of the results.
# Target: T1, Stp1 (UniProt B3LFK1)
# T1 sequence: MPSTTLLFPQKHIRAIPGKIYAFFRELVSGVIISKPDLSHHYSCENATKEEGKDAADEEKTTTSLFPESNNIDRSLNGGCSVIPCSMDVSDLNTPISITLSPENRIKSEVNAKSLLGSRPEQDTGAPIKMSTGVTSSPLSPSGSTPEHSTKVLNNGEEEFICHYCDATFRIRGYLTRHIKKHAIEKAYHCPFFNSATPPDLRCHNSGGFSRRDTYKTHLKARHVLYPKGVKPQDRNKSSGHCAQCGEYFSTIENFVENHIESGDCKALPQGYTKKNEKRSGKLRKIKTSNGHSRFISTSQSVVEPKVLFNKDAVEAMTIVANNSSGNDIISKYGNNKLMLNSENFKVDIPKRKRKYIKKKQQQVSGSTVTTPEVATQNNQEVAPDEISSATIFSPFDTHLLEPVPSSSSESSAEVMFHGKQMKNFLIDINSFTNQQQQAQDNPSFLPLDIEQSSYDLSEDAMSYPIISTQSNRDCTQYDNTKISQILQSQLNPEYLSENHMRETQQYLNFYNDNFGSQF
# Experiment: PBM E-score (8-mer binding enrichment) (E-score (-0.5 to 0.5)); higher = stronger / more preferred TF binding; most listed sequences are background and not binding sites
# Conditions: protein concentration: 200 nM; construct: GST-full length
# How it was run: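 PURExpress in vitro transcription/translation supplied GST-tagged yeast transcription factors, either full-length or DNA-binding domain. Applied at about 100-200 nM to universal all-10-mer Agilent arrays double-stranded by primer extension, the bound protein was detected with fluorescent anti-GST. E-scores, modified Wilcoxon-Mann-Whitney statistics, were given by the Universal PBM Analysis Suite to ungapped eight-base words pooled with their reverse complements after masliner normalisation.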
row,Sequence,PBM E-score
1,TATAGTCA,0.0384
2,GTATGGTA,-0.09
3,CCAGACTC,-0.192
4,CGCAATGC,0.114
5,ACCACAGT,-0.0128
6,ATGTTATG,0.0898
7,TCAAAGGA,0.0588
8,AAGACGGC,0.318
9,GAGTGCAA,-0.0337
10,GAATCTAC,0.0697
11,CTTAGTTC,0.0874
12,ACCGTTCT,-0.0608
13,GCAGGTCC,0.00516
14,CCAGGACG,-0.209
15,ACATGACG,-0.00655
16,CCACGAAC,0.121
17,ATTGTAAC,0.073
18,CAGGACCC,-0.199
19,CGCAGTGA,0.182
20,GTAGATAC,0.0705
21,CACCACTA,0.0711
22,CCGGGCCG,0.138
23,TATCCAGA,0.151
24,ACCGTCTG,-0.138
25,TCAACTGA,-0.0399

row,Sequence,PBM E-score
1,AAATGGTG,0.119
2,AGGATAGC,0.0903
3,ATAGCGTG,0.00662
4,ATTGATTC,0.265
5,ACACATGA,0.00469
6,AGGCTCTG,0.0387
7,TAGAAGGA,-0.185
8,CACCTTAC,-0.0776
9,AACAGAAC,0.0676
10,CATGACGG,0.0485
11,AGCACCTA,-0.162
12,CGCCATCA,-0.144
13,GGGGTGTA,-0.188
14,CGGGTTAA,0.0609
15,CGAGATAA,0.127
16,CATTACAG,-0.00542
17,AGGCATAG,0.15
18,CCCCGGCA,-0.217
19,ATAGGTGC,0.0855
20,TCGTAGAA,0.0592
21,ATGGAATG,-0.0629
22,ATCTTCGC,0.107
23,AAAAGGGG,-0.318
24,GGAAATAA,0.195
25,ATACAGTC,-0.15

row,Sequence,PBM E-score
1,AACGCACC,-0.0604
2,ACTGTATC,-0.0394
3,ACACCACA,0.108
4,ACCCTTGC,-0.177
5,CGTTGAGA,0.0693
6,AGGCTTTC,0.198
7,ACAACTTG,-0.0216
8,ACTATTGG,-0.105
9,CTATGTCA,0.0763
10,CCTAATGA,0.103
11,CCCGAGCG,-0.0524
12,AAGAACCT,-0.0404
13,ACGGCAAC,0.455
14,GATTATGC,-0.0446
15,GATATAAA,0.0683
16,ACGCTCTC,-0.0282
17,TCATATGA,0.193
18,AGAGTGAC,-0.219
19,GGTATCTA,0.109
20,CTAACGTA,0.0911
21,GTAATTAA,-0.0546
22,AATGCCAT,0.312
23,AACCGGTT,0.00128
24,TCCGCCGA,0.188
25,AGAATTAA,0.0137

row,Sequence,PBM E-score
1,AAGCAGCC,-0.0898
2,GGAAACGA,0.0539
3,ACACAGAA,0.0694
4,AACCGGGT,0.0665
5,GCAGGTCA,-0.215
6,CAGGTCAG,-0.247
7,AATCGTTG,-0.0537
8,CCGCAACC,-0.0571
9,AGAGGGAA,-0.24
10,AAATGAGA,0.082
11,CACTGAGA,-0.132
12,ACACATTC,0.0623
13,AAGTCATG,-0.15
14,CGGCAGAG,0.0271
15,AGTAAACT,0.0943
16,AAATAGGT,0.0165
17,AGCGCGTA,0.159
18,GCGGACGA,0.122
19,ACCTGAAG,-0.118
20,TGCATACA,0.0878
21,CGGTACTA,-0.12
22,GTAGTCTA,-0.0787
23,CTACTAAG,-0.0136
24,AATGTTCT,-0.101
25,AGAGCATG,-0.155

row,Sequence,PBM E-score
1,TAAATTGA,0.0532
2,ATCCCGAA,0.0909
3,AGACCGGA,-0.00159
4,ATCCCCTA,-0.387
5,AATTTCCC,0.0104
6,CTTGAAAA,0.202
7,AACCGGTC,-0.156
8,AGATCCGA,-0.0881
9,ATTTCCGC,0.0933
10,CGAGAGCA,-0.0153
11,CAGGCTAA,-0.00415
12,CGAAAACA,0.0759
13,GTTACCTA,-0.0893
14,CTGCCACA,0.0726
15,CGCAAATC,0.00574
16,CGACTGTC,-0.146
17,CGCCGCAC,0.478
18,AAGCCTGT,-0.0611
19,CGCGCCCG,0.172
20,ACGCTCAA,-0.06
21,AGCACAAG,0.0159
22,CTGGCCAG,-0.223
23,GGATGATA,0.0377
24,AACTCTAA,-0.00844
25,CTCTAAAC,-0.0103

row,Sequence,PBM E-score
1,GCGAGCAA,-0.0847
2,AGCCGACC,-0.157
3,CATTAGCC,0.0474
4,CCACTGAA,0.0781
5,TCACCAAA,0.136
6,CTTTTAGC,-0.015
7,CGTTGAAA,0.0307
8,GCGTAAAA,0.139
9,ATGCGATG,-0.0343
10,GCTCTCTA,-0.0314
11,ACGAGATG,0.0243
12,TAGACCCA,-0.0742
13,AGGTACAC,-0.102
14,CCACGGGA,-0.0649
15,GATTATCC,-0.0707
16,CACCCACA,0.0668
17,CAGTGAGC,-0.0174
18,TCCTCCCA,-0.262
19,CCGCCAGG,-0.201
20,AATCTTGG,-0.0482
21,CGGCCGTA,0.37
22,CTCTAGCA,-0.169
23,AAAAAAAA,0.252
24,ACTGTAGC,-0.0579
25,AGGAAGGG,-0.0935

row,Sequence,PBM E-score
1,ACCCGAAC,-0.0629
2,TGCGACAA,0.0498
3,GAAGAAGC,-0.136
4,AGGGGTTG,-0.261
5,ATGGTACA,-0.236
6,ATTAGGGG,-0.269
7,ATAGCATA,0.0615
8,GCTACTAA,0.0928
9,AACGCGGA,0.0987
10,GGAGCCAA,-0.0874
11,GCCGGGGA,-0.184
12,CGCCCCCA,-0.353
13,AATTGGGC,0.0998
14,CCTAGTGC,0.135
15,AAGCAGAA,-2e-05
16,ACCCTACA,-0.0818
17,CATTCGAC,-0.0891
18,CCGCAGGC,0.265
19,CTAGCAAA,0.0489
20,AAGGAGAT,-0.248
21,ACGAGACT,-0.243
22,ACCCCTCC,-0.383
